{"source": "patent US7592316B2", "about": "“Peptides as NS3-serine protease inhibitors of hepatitis C virus” (Schering Corporation, priority 2000, dated 2009)", "note": "*1 amine or outer side, *2 acyl side, *3 side chain or, on linkers, in order; H or OH if unused. Where a SMILES comes first, the peptide text is derived from it. [ ]: non-standard residue; d: D form. The star is where a group is joined. ξ: configuration not given here. ξ(3-Amino-2-oxohex-5-enoyl) = C=CCC(N[*:1])C(=O)C(=O)[*:2]; Pro(3R,4S-CMe2) = CC1(C)[C@@H]2[C@@H](C(=O)O)NC[C@@H]21; ξLeu(ψCOCO) = CC(C)CC(N[*:1])C(=O)C(=O)[*:2]; Gly(2-thienyl) = N[C@H](C(=O)O)c1cccs1; Isobutyloxycarbonyl = CC(C)COC(=O)*; X8 = O=C(C(=O)[*:2])C(CC1CC1)N[*:1]; X4 = CCCCC(N[*:1])C(=O)C(=O)[*:2]; Hyp = O=C(O)[C@@H]1C[C@@H](O)CN1; dTle = CC(C)(C)[C@@H](N)C(=O)O; Phg = N[C@H](C(=O)O)c1ccccc1; Tle = CC(C)(C)[C@H](N)C(=O)O; Boc = CC(C)(C)OC(=O)*; tBu = CC(C)(C)*"}
{"biological_target": "HCV NS3/NS4A protease (strain 1a) (Hepatitis C virus genotype 1a, UniProt P27958)", "assay": "biochemical", "details": "HCV protease continuous assay results, Table 1; read-out: Ki* Range", "units": {"Ki": "nM"}}
{"smiles": "CCCCC(NC(=O)[C@@H]1C[C@@H](OC(C)(C)C)CN1C(=O)[C@@H](NC(=O)OCC(C)C)C(C)(C)C)C(=O)C(=O)NCC(=O)N[C@H](C(=O)N(C)C)c1cccs1", "note": "(stereo partly drawn) [Example 318] (Isobutyloxycarbonyl-[Tle][Hyp](tBu)[X4]G[Gly(2-thienyl)]-NMe2)", "Ki": "1 to 100"}
{"smiles": "CCCCC(NC(=O)[C@@H]1C[C@@H](Oc2cc(-c3ccccc3)nc3cc(OC)ccc23)CN1C(=O)[C@@H](NC(=O)OC(C)(C)C)C(C)C)C(=O)C(=O)NCC(=O)N[C@H](C(=O)N(C)C)c1ccccc1", "note": "(stereo partly drawn) [Example 319]", "Ki": "1 to 100"}
{"smiles": "CN(C)C(=O)[C@@H](NC(=O)CNC(=O)C(=O)C(CC1CC1)NC(=O)[C@@H]1[C@@H]2[C@H](CN1C(=O)[C@@H](NC(=O)OC(C)(C)C)C(C)(C)C)C2(C)C)c1ccccc1", "note": "(stereo partly drawn) [Example 320] (Boc-[Tle][Pro(3R,4S-CMe2)][X8]G[Phg]-NMe2)", "Ki": "1 to 100"}
{"smiles": "CCCC(NC(=O)[C@@H]1[C@@H]2[C@H](CN1C(=O)[C@@H](NC(=O)OC(C)(C)C)C(C)(C)C)C2(C)C)C(=O)C(=O)NC", "note": "(stereo partly drawn) [Example 321]", "Ki": "> 1000"}
{"smiles": "CCCC(NC(=O)[C@@H]1[C@@H]2[C@H](CN1C(=O)[C@@H](NC(=O)OC(C)(C)C)C(C)(C)C)C2(C)C)C(=O)C(=O)N(C)C", "note": "(stereo partly drawn) [Example 322]", "Ki": "> 1000"}
{"smiles": "CCCCC(NC(=O)[C@@H]1C[C@@H](OC(C)(C)C)CN1C(=O)[C@@H](NC(=O)OCC(C)C)C(C)(C)C)C(=O)C(=O)NCC(=O)N[C@@H](c1ccccc1)[C@H](C)O", "note": "(stereo partly drawn) [Example 324]", "Ki": "> 1000"}
{"smiles": "CCCC(NC(=O)[C@@H]1CC(OC(C)(C)C)CN1C(=O)C(NC(=O)OC(C)(C)C)C(C)(C)C)C(=O)C(=O)NCC(=O)NC(C(=O)N(C)C)c1ccccc1", "note": "(stereo partly drawn) [Example 325]", "Ki": "1 to 100"}
{"smiles": "CC(C)CC(NC(=O)[C@@H]1[C@@H]2[C@H](CN1C(=O)[C@@H](NC(=O)OC(C)(C)C)C(C)(C)C)C2(C)C)C(=O)C(=O)NCC(=O)N[C@H](C(=O)N(C)C)c1ccccc1", "note": "(stereo partly drawn) [Example 326] (Boc-[Tle][Pro(3R,4S-CMe2)][ξLeu(ψCOCO)]G[Phg]-NMe2)", "Ki": "1 to 100"}
{"smiles": "CCCC(NC(=O)C1CC2(CN1C(=O)[C@@H](NC(=O)OCC(C)C)C1CCCCC1)SCCCS2)C(=O)C(N)=O", "note": "(stereo partly drawn) [Example 328]", "Ki": "101 to 1000"}
{"smiles": "CCCCC(NC(=O)C1[C@@H]2[C@H](CN1C(=O)[C@@H](NC(=O)OCC(C)C)C(C)(C)C)C2(C)C)C(=O)C(=O)NCC(=O)N[C@H](C(=O)N(C)C)c1ccccc1", "note": "(stereo partly drawn) [Example 329]", "Ki": "101 to 1000"}
{"smiles": "CCCCC(NC(=O)C1[C@@H]2[C@H](CN1C(=O)[C@@H](NC(=O)OCC(C)C)C(C)(C)C)C2(C)C)C(=O)C(=O)NCC(=O)N[C@H](C(=O)N(C)C)c1ccccc1", "note": "(stereo partly drawn) [Example 330]", "Ki": "1 to 100"}
{"smiles": "CCCCC(NC(=O)C1[C@@H]2[C@H](CN1C(=O)[C@@H](NC(=O)OCC(C)C)C(C)(C)C)C2(C)C)C(=O)C(=O)NCC(=O)N[C@H](C(=O)N(C)C)c1ccccc1", "note": "(stereo partly drawn) [Example 331]", "Ki": "1 to 100"}
{"smiles": "CCCCC(NC(=O)C1[C@@H]2[C@H](CN1C(=O)[C@@H](NC(=O)OCC(C)(C)C)C(C)(C)C)C2(C)C)C(=O)C(=O)NCC(=O)N[C@H](C(=O)N(C)C)c1ccccc1", "note": "(stereo partly drawn) [Example 332]", "Ki": "1 to 100"}
{"smiles": "CCCC(NC(=O)[C@@H]1CC(O)CN1C(=O)C(NC(=O)OC(C)(C)C)C(C)(C)C)C(=O)C(=O)NCC(=O)NC(C(=O)N(C)C)c1ccccc1", "note": "(stereo partly drawn) [Example 333]", "Ki": "101 to 1000"}
{"smiles": "C=CCC(NC(=O)[C@@H]1[C@@H]2[C@H](CN1C(=O)[C@H](NC(=O)OC(C)(C)C)C(C)(C)C)C2(C)C)C(=O)C(=O)NCC(=O)OC", "note": "(stereo partly drawn) [Example 334]", "Ki": "101 to 1000"}
{"smiles": "C=CCC(NC(=O)[C@@H]1[C@@H]2[C@H](CN1C(=O)[C@H](NC(=O)OC(C)(C)C)C(C)(C)C)C2(C)C)C(=O)C(=O)NCC(=O)O", "note": "(stereo partly drawn) [Example 335]", "Ki": "101 to 1000"}
{"smiles": "CCCC(NC(=O)[C@@H]1CC(OC(=O)CCc2ccccc2)CN1C(=O)C(NC(=O)OC(C)(C)C)C(C)(C)C)C(=O)C(=O)NCC(=O)NC(C(=O)N(C)C)c1ccccc1", "note": "(stereo partly drawn) [Example 336]", "Ki": "1 to 100"}
{"smiles": "C=CCC(NC(=O)[C@@H]1[C@@H]2[C@H](CN1C(=O)[C@H](NC(=O)OC(C)(C)C)C(C)(C)C)C2(C)C)C(=O)C(=O)NCC(=O)N[C@H](C(=O)N(C)C)c1ccccc1", "note": "(stereo partly drawn) [Example 337] (Boc-[dTle][Pro(3R,4S-CMe2)][ξ(3-Amino-2-oxohex-5-enoyl)]G[Phg]-NMe2)", "Ki": "1 to 100"}
